Assay results reported in publication PMC12666128, “Engineering ω-transaminase for efficient dihydroxyacetone transamination in serinol biosynthesis starting from methanol” (Synthetic and Systems Biotechnology, 2025).

Target: T1, Vf-ωTA (Vibrio fluvialis, UniProt F2XBU9)
T1 construct: recombinant ω-transaminase
T1 sequence (F2XBU9 1-453): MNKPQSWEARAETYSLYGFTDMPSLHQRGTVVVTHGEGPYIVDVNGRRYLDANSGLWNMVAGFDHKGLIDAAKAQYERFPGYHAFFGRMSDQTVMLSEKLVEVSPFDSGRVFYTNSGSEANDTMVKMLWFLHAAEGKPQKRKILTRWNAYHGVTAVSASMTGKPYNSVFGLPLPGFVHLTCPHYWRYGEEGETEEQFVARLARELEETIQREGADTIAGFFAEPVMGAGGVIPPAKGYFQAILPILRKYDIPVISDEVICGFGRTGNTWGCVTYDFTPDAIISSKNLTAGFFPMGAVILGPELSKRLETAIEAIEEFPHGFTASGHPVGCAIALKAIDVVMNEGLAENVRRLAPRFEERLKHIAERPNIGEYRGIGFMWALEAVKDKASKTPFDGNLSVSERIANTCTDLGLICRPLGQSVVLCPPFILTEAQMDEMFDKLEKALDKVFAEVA
Assay: HPLC of serinol formed
Assay type: biochemical
Settings: 30 mM DHA, 150 mM L-Ala, 0.5 mM PLP, pH 7.5, 30 °C, 12 h

| SMILES | HPLC of serinol formed | HPLC of serinol formed (amino donor) |
| --- | --- | --- |
| O=C(CO)CO [DHA] | all ω-TAs gave substantially higher serinol conversion with L-Ala than with IPA or MBA | – |
| C[C@H](N)C(=O)O [L-Ala] | – | all ω-TAs gave substantially higher serinol conversion with L-Ala than with IPA or MBA |
